Assay results from PMC9911399, “Two distinct binding modes provide the RNA-binding protein RbFox with extraordinary sequence specificity”.
Residue numbers refer to the chain shown, from its start. Some of the results follow.

T1: RBFOX1 RRM (Homo sapiens, UniProt Q9NWB1 109-208)
T1 sequence: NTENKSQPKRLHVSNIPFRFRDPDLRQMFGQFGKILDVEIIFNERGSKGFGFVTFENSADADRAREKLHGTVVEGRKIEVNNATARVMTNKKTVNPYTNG

B1: GAGACGG (DNA:RNA)
RNA: GGGAGACCGGAAUUCAGAUUGUCCGAGACGGUUAAAUCCCGUCGUAGCCACCA
DNA 1: CAATCTGAATTCCGGTCTCCC
DNA 2: TGGTGGCTACGACGGGATT
B2: ACUAACC (DNA:RNA)
RNA: B1 RNA with G25A, A26C, G27U, C29A, G30C, G31C
DNA 1: CAATCTGAATTCCGGTCTCCC
DNA 2: TGGTGGCTACGACGGGATT
B3: AAUCAUA (DNA:RNA)
RNA: B1 RNA with G25A, G27U, A28C, C29A, G30U, G31A
DNA 1: CAATCTGAATTCCGGTCTCCC
DNA 2: TGGTGGCTACGACGGGATT
B4: ACGCUCA (DNA:RNA)
RNA: B1 RNA with G25A, A26C, A28C, C29U, G30C, G31A
DNA 1: CAATCTGAATTCCGGTCTCCC
DNA 2: TGGTGGCTACGACGGGATT
B5: AUUCGGC (DNA:RNA)
RNA: B1 RNA with G25A, A26U, G27U, A28C, C29G, G31C
DNA 1: CAATCTGAATTCCGGTCTCCC
DNA 2: TGGTGGCTACGACGGGATT
B6: UGCCGAG (DNA:RNA)
RNA: B1 RNA with G25U, A26G, G27C, A28C, C29G, G30A
DNA 1: CAATCTGAATTCCGGTCTCCC
DNA 2: TGGTGGCTACGACGGGATT
B7: AGAGAGU (DNA:RNA)
RNA: B1 RNA with G25A, A26G, G27A, A28G, C29A, G31U
DNA 1: CAATCTGAATTCCGGTCTCCC
DNA 2: TGGTGGCTACGACGGGATT
B8: AUGGGAU (DNA:RNA)
RNA: B1 RNA with G25A, A26U, A28G, C29G, G30A, G31U
DNA 1: CAATCTGAATTCCGGTCTCCC
DNA 2: TGGTGGCTACGACGGGATT
B9: UGCAUCG (DNA:RNA)
RNA: B1 RNA with G25U, A26G, G27C, C29U, G30C
DNA 1: CAATCTGAATTCCGGTCTCCC
DNA 2: TGGTGGCTACGACGGGATT
B10: GUUGAUU (DNA:RNA)
RNA: B1 RNA with A26U, G27U, A28G, C29A, G30U, G31U
DNA 1: CAATCTGAATTCCGGTCTCCC
DNA 2: TGGTGGCTACGACGGGATT
B11: ACGCUAC (DNA:RNA)
RNA: B1 RNA with G25A, A26C, A28C, C29U, G30A, G31C
DNA 1: CAATCTGAATTCCGGTCTCCC
DNA 2: TGGTGGCTACGACGGGATT
B12: CCCGGUU (DNA:RNA)
RNA: GGGAGACCGGAAUUCAGAUUGUCCCCCGGUUUUAAAUCCCGUCGUAGCCACCA
DNA 1: CAATCTGAATTCCGGTCTCCC
DNA 2: TGGTGGCTACGACGGGATT
B13: GCAGGAU (DNA:RNA)
RNA: B12 RNA with C25G, C27A, U30A
DNA 1: CAATCTGAATTCCGGTCTCCC
DNA 2: TGGTGGCTACGACGGGATT
B14: ACGGCUU (DNA:RNA)
RNA: B12 RNA with C25A, C27G, G29C
DNA 1: CAATCTGAATTCCGGTCTCCC
DNA 2: TGGTGGCTACGACGGGATT
B15: AGCAGUA (DNA:RNA)
RNA: B12 RNA with C25A, C26G, G28A, U31A
DNA 1: CAATCTGAATTCCGGTCTCCC
DNA 2: TGGTGGCTACGACGGGATT
B16: UAAAACA (DNA:RNA)
RNA: B1 RNA with G25U, G27A, C29A, G30C, G31A
DNA 1: CAATCTGAATTCCGGTCTCCC
DNA 2: TGGTGGCTACGACGGGATT
B17: GCCUCUU (DNA:RNA)
RNA: B12 RNA with C25G, G28U, G29C
DNA 1: CAATCTGAATTCCGGTCTCCC
DNA 2: TGGTGGCTACGACGGGATT
B18: AGGUUUA (DNA:RNA)
RNA: B12 RNA with C25A, C26G, C27G, G28U, G29U, U31A
DNA 1: CAATCTGAATTCCGGTCTCCC
DNA 2: TGGTGGCTACGACGGGATT
B19: UUAGCGG (DNA:RNA)
RNA: B1 RNA with G25U, A26U, G27A, A28G
DNA 1: CAATCTGAATTCCGGTCTCCC
DNA 2: TGGTGGCTACGACGGGATT
B20: CACUGCC (DNA:RNA)
RNA: B12 RNA with C26A, G28U, U30C, U31C
DNA 1: CAATCTGAATTCCGGTCTCCC
DNA 2: TGGTGGCTACGACGGGATT
B21: UGAAUUC (DNA:RNA)
RNA: B12 RNA with C25U, C26G, C27A, G28A, G29U, U31C
DNA 1: CAATCTGAATTCCGGTCTCCC
DNA 2: TGGTGGCTACGACGGGATT
B22: CAUACUA (DNA:RNA)
RNA: B1 RNA with G25C, G27U, G30U, G31A
DNA 1: CAATCTGAATTCCGGTCTCCC
DNA 2: TGGTGGCTACGACGGGATT
B23: GUCAUUU (DNA:RNA)
RNA: B12 RNA with C25G, C26U, G28A, G29U
DNA 1: CAATCTGAATTCCGGTCTCCC
DNA 2: TGGTGGCTACGACGGGATT
B24: CGCGUAC (DNA:RNA)
RNA: B12 RNA with C26G, G29U, U30A, U31C
DNA 1: CAATCTGAATTCCGGTCTCCC
DNA 2: TGGTGGCTACGACGGGATT
B25: CUAGUGG (DNA:RNA)
RNA: B12 RNA with C26U, C27A, G29U, U30G, U31G
DNA 1: CAATCTGAATTCCGGTCTCCC
DNA 2: TGGTGGCTACGACGGGATT
B26: GUAGAUA (DNA:RNA)
RNA: B12 RNA with C25G, C26U, C27A, G29A, U31A
DNA 1: CAATCTGAATTCCGGTCTCCC
DNA 2: TGGTGGCTACGACGGGATT
B27: UAGACCU (DNA:RNA)
RNA: B1 RNA with G25U, G30C, G31U
DNA 1: CAATCTGAATTCCGGTCTCCC
DNA 2: TGGTGGCTACGACGGGATT
B28: AGGCAGA (DNA:RNA)
RNA: B1 RNA with G25A, A26G, A28C, C29A, G31A
DNA 1: CAATCTGAATTCCGGTCTCCC
DNA 2: TGGTGGCTACGACGGGATT
B29: GGAGGCA (DNA:RNA)
RNA: B12 RNA with C25G, C26G, C27A, U30C, U31A
DNA 1: CAATCTGAATTCCGGTCTCCC
DNA 2: TGGTGGCTACGACGGGATT
B30: UUGAGAU (DNA:RNA)
RNA: B12 RNA with C25U, C26U, C27G, G28A, U30A
DNA 1: CAATCTGAATTCCGGTCTCCC
DNA 2: TGGTGGCTACGACGGGATT
B31: CAACCCC (DNA:RNA)
RNA: B1 RNA with G25C, G27A, A28C, G30C, G31C
DNA 1: CAATCTGAATTCCGGTCTCCC
DNA 2: TGGTGGCTACGACGGGATT

Molecular target: T1, RBFOX1 RRM
Test: EMSA; HiTS-Eq, 1 nM pool, 10 min; buffer printed only for the single-RNA assays: 10 mM Tris pH 7.5, 150 mM NaCl, 3.4 mM EDTA, 0.001% NP-40, 30 C
Conditions: tags: His6 N-terminal (pET28a); label: 5' 32P
How it was run: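 Purified wild-type or mutant RbFox RRM at increasing concentrations was equilibrated with 1 nM of 5′-radiolabelled RNA carrying 7 randomized nucleotides for 10 min in 50 µL. Unbound RNA was separated by 8% native PAGE and sequenced. Relative association constants came from read-count changes of each RNA species compared with the control reaction, normalised to the cognate motif.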

| Binder | binding signal |
| --- | --- |
| B1 | 0.0118 KA relative to UGCAUGU |
| B2 | 0.00187 KA relative to UGCAUGU |
| B3 | 0.00052 KA relative to UGCAUGU |
| B4 | 0.00635 KA relative to UGCAUGU |
| B5 | 0.00892 KA relative to UGCAUGU |
| B6 | 0.0232 KA relative to UGCAUGU |
| B7 | 0.0122 KA relative to UGCAUGU |
| B8 | 0.0102 KA relative to UGCAUGU |
| B9 | 0.0295 KA relative to UGCAUGU |
| B10 | 0.0225 KA relative to UGCAUGU |
| B11 | 0.00671 KA relative to UGCAUGU |
| B12 | 0.00756 KA relative to UGCAUGU |
| B13 | 0.011 KA relative to UGCAUGU |
| B14 | 0.0099 KA relative to UGCAUGU |
| B15 | 0.00564 KA relative to UGCAUGU |
| B16 | 0.00245 KA relative to UGCAUGU |

| Binder | binding signal |
| --- | --- |
| B17 | 0.0112 KA relative to UGCAUGU |
| B18 | 0.00548 KA relative to UGCAUGU |
| B19 | 0.00858 KA relative to UGCAUGU |
| B20 | 0.00554 KA relative to UGCAUGU |
| B21 | 0.008 KA relative to UGCAUGU |
| B22 | 0.000261 KA relative to UGCAUGU |
| B23 | 0.00547 KA relative to UGCAUGU |
| B24 | 0.00803 KA relative to UGCAUGU |
| B25 | 0.00266 KA relative to UGCAUGU |
| B26 | 0.00757 KA relative to UGCAUGU |
| B27 | 0.00333 KA relative to UGCAUGU |
| B28 | 0.00971 KA relative to UGCAUGU |
| B29 | 0.0162 KA relative to UGCAUGU |
| B30 | 0.019 KA relative to UGCAUGU |
| B31 | 0.000951 KA relative to UGCAUGU |
